Some of these densities may be calculated back from excess volumes.
Assay: xn = mol fraction of the nth substance listed
Conditions: 100 kPa

CCCC[n+]1ccn(C)c1C.F[B-](F)(F)F + O=C1CCCN1
mass density [kg/m3]
Conditions | 293.15 K | 298.15 K | 303.15 K | 308.15 K
x1 = 0.0698 | 1129.3 | 1125.7 | 1122.1 | 1118.8
x1 = 0.1052 | – | 1133.4 | 1130 | 1127
x1 = 0.1469 | – | – | 1138.1 | 1135.3
x1 = 0.1948 | 1151.8 | 1149 | – | 1143.5
x1 = 0.2495 | 1159 | 1156.4 | – | 1151.5
x1 = 0.2945 | 1164 | 1161.5 | 1159.1 | 1157
x1 = 0.3428 | 1168.5 | 1166.2 | 1164.1 | 1162
x1 = 0.3964 | 1172.8 | 1170.6 | – | 1166.7
x1 = 0.4419 | 1175.9 | – | 1172.1 | 1170
x1 = 0.5004 | 1179.3 | 1177.2 | 1175.6 | 1173.6
x1 = 0.5563 | 1182 | 1179.9 | 1178.4 | 1176.4
x1 = 0.5949 | 1183.6 | 1181.5 | 1180 | 1178.1
x1 = 0.6419 | – | 1183.2 | 1181.7 | 1179.8
x1 = 0.6984 | 1187.1 | 1184.9 | 1183.3 | 1181.5
x1 = 0.7521 | 1188.6 | – | 1184.8 | 1182.9
x1 = 0.8031 | – | 1187.5 | 1185.9 | 1184.1
x1 = 0.8549 | 1190.9 | 1188.6 | 1187 | 1185
x1 = 0.9021 | – | 1189.5 | 1187.8 | 1185.8
x1 = 0.9564 | 1193 | 1190.5 | – | 1186.6

Reference: a compilation of properties of binary mixtures (doi:10.1007/s10953-021-01127-x)
